Test results taken from the supplement of paper PMC4967469.

Assays:
Test in all cases: Viability of human cancer cell lines after 72 h of drug (GDSC screen)
[1] = compound: CC(C)N(CCCNC(=O)Nc1ccc(C(C)(C)C)cc1)C[C@H]1O[C@@H](n2cc(Br)c3c(N)ncnc32)[C@H](O)[C@@H]1O [SGC0946]; settings: top dose 0.5 µM; top dose inferred
Method: (§1)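 Human cancer cell lines in 384-well plates, medium with 10% serum, drug for 72 h over a 256-fold dose range (nine 2-fold or five 4-fold steps up to the top dose). Adherent lines were fixed and stained with the nucleic acid dye Syto60, suspension lines read with resazurin; signal relative to control wells, capped at 0 and 100%. One two-parameter sigmoid per drug and line, fitted in a mixed model over all curves with the slope shared within a line.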

[2] = compound: CCC/C=C/C=C/C(=O)O[C@H]1/C(=C/C(=O)OC)C[C@H]2C[C@H]([C@@H](C)O)OC(=O)C[C@H](O)C[C@@H]3C[C@H](OC(C)=O)C(C)(C)[C@](O)(C[C@@H]4C/C(=C/C(=O)OC)C[C@H](/C=C/C(C)(C)[C@]1(O)O2)O4)O3 [Bryostatin 1]; settings: top dose 0.008 µM; top dose inferred
Method: as §1

[3] = compound: COc1ccc(COc2ccc(Cc3cnc(N)nc3N)cc2OC)cc1 [GW-2580]; settings: top dose 20 µM; top dose inferred
Method: as §1

[4] = compound: Nc1cccc2c1CN(C1CCC(=O)NC1=O)C2=O [Lenalidomide]; settings: top dose 5 µM; top dose inferred
Method: as §1

| Cell Line | AUC [1] | pIC50 [1] | AUC [2] | pIC50 [2] | AUC [3] | pIC50 [3] | AUC [4] | pIC50 [4] |
| --- | --- | --- | --- | --- | --- | --- | --- | --- |
| LS-513 (large intestine, adherent) | 0.986 | < 6.30 | 0.974 | < 8.10 | 0.987 | < 4.70 | 0.986 | < 5.30 |
| SNG-M (endometrium, adherent) | 0.984 | < 6.30 | 0.985 | < 8.10 | 0.958 | < 4.70 | 0.949 | < 5.30 |
| DMS-79 (small cell lung carcinoma, suspension) | 0.985 | < 6.30 | 0.984 | < 8.10 | 0.964 | < 4.70 | 0.986 | < 5.30 |
| NCI-H1993 (lung adenocarcinoma, adherent) | 0.976 | < 6.30 | 0.945 | < 8.10 | 0.983 | < 4.70 | 0.94 | < 5.30 |
| BB65-RCC (kidney, adherent) | 0.98 | < 6.30 | 0.942 | < 8.10 | 0.982 | < 4.70 | 0.966 | < 5.30 |
| RO82-W-1 (thyroid, adherent) | 0.981 | < 6.30 | 0.977 | < 8.10 | 0.98 | < 4.70 | 0.981 | < 5.30 |
| Hs939-T (melanoma, adherent) | 0.984 | < 6.30 | 0.984 | < 8.10 | 0.986 | < 4.70 | 0.985 | < 5.30 |
| NCI-H2122 (lung adenocarcinoma, adherent) | 0.988 | < 6.30 | 0.902 | < 8.10 | 0.989 | < 4.70 | 0.978 | < 5.30 |
| LoVo (large intestine, adherent) | 0.97 | < 6.30 | 0.904 | < 8.10 | 0.985 | < 4.70 | 0.968 | < 5.30 |
| OCI-AML3 (acute myeloid leukaemia, suspension) | 0.99 | < 6.30 | 0.982 | < 8.10 | 0.975 | < 4.70 | 0.961 | < 5.30 |
| GI-ME-N (neuroblastoma, adherent) | 0.973 | < 6.30 | 0.928 | < 8.10 | 0.973 | < 4.70 | 0.973 | < 5.30 |
| SK-PN-DW (Ewing sarcoma, adherent) | 0.984 | < 6.30 | 0.986 | < 8.10 | 0.98 | < 4.70 | 0.919 | < 5.30 |
| TE-9 (oesophagus, adherent) | 0.985 | < 6.30 | 0.969 | < 8.10 | 0.985 | < 4.70 | 0.987 | < 5.30 |
| MOG-G-UVW (glioma, adherent) | 0.981 | < 6.30 | 0.68 | 8.80 | 0.983 | < 4.70 | 0.965 | < 5.30 |
| Hs766T (pancreas, adherent) | 0.978 | < 6.30 | 0.967 | < 8.10 | 0.984 | < 4.70 | 0.947 | < 5.30 |
| SK-MEL-1 (melanoma, suspension) | 0.993 | < 6.30 | 0.99 | < 8.10 | 0.993 | < 4.70 | 0.993 | < 5.30 |
| SK-MES-1 (lung squamous cell carcinoma, adherent) | 0.983 | < 6.30 | 0.945 | < 8.10 | 0.977 | < 4.70 | 0.981 | < 5.30 |
| RF-48 (stomach, adherent) | 0.97 | < 6.30 | 0.984 | < 8.10 | 0.981 | < 4.70 | 0.972 | < 5.30 |
| 8505C (thyroid, adherent) | 0.974 | < 6.30 | 0.932 | < 8.10 | 0.984 | < 4.70 | 0.984 | < 5.30 |
| SIMA (neuroblastoma, adherent) | 0.983 | < 6.30 | 0.981 | < 8.10 | 0.985 | < 4.70 | 0.985 | < 5.30 |

| Cell Line | AUC [1] | pIC50 [1] | AUC [2] | pIC50 [2] | AUC [3] | pIC50 [3] | AUC [4] | pIC50 [4] |
| --- | --- | --- | --- | --- | --- | --- | --- | --- |
| Calu-3 (lung adenocarcinoma, adherent) | 0.981 | < 6.30 | 0.976 | < 8.10 | 0.983 | < 4.70 | 0.982 | < 5.30 |
| A498 (kidney, adherent) | 0.963 | < 6.30 | 0.907 | < 8.10 | 0.968 | < 4.70 | 0.933 | < 5.30 |
| RERF-LC-KJ (lung adenocarcinoma, adherent) | 0.976 | < 6.30 | 0.969 | < 8.10 | 0.987 | < 4.70 | 0.987 | < 5.30 |
| NB14 (neuroblastoma, adherent) | 0.988 | < 6.30 | 0.989 | < 8.10 | 0.987 | < 4.70 | 0.989 | < 5.30 |
| NCI-H1792 (lung adenocarcinoma, adherent) | 0.986 | < 6.30 | 0.965 | < 8.10 | 0.983 | < 4.70 | 0.977 | < 5.30 |
| Ca-Ski (cervix, adherent) | 0.979 | < 6.30 | 0.94 | < 8.10 | 0.95 | < 4.70 | 0.971 | < 5.30 |
| HCC1569 (breast, adherent) | 0.978 | < 6.30 | 0.932 | < 8.10 | 0.973 | < 4.70 | 0.978 | < 5.30 |
| KMH-2 (thyroid, adherent) | 0.989 | < 6.30 | 0.919 | < 8.10 | 0.971 | < 4.70 | 0.99 | < 5.30 |
| RCM-1 (large intestine, adherent) | 0.983 | < 6.30 | 0.98 | < 8.10 | 0.978 | < 4.70 | 0.982 | < 5.30 |
| HT-1376 (bladder, adherent) | 0.98 | < 6.30 | 0.973 | < 8.10 | 0.984 | < 4.70 | 0.957 | < 5.30 |
| CHL-1 (melanoma, adherent) | 0.986 | < 6.30 | 0.967 | < 8.10 | 0.985 | < 4.70 | 0.978 | < 5.30 |
| HARA (lung squamous cell carcinoma, adherent) | 0.955 | < 6.30 | 0.971 | < 8.10 | 0.98 | < 4.70 | 0.926 | < 5.30 |
| C32 (melanoma, adherent) | 0.979 | < 6.30 | 0.978 | < 8.10 | 0.985 | < 4.70 | 0.961 | < 5.30 |
| PA-TU-8988T (pancreas, adherent) | 0.986 | < 6.30 | 0.97 | < 8.10 | 0.973 | < 4.70 | 0.977 | < 5.30 |
| MZ2-MEL (melanoma, adherent) | 0.971 | < 6.30 | 0.949 | < 8.10 | 0.971 | < 4.70 | 0.952 | < 5.30 |
| DoTc2-4510 (cervix, adherent) | 0.987 | < 6.30 | 0.974 | < 8.10 | 0.985 | < 4.70 | 0.983 | < 5.30 |
| ASH-3 (thyroid, adherent) | 0.987 | < 6.30 | 0.988 | < 8.10 | 0.988 | < 4.70 | 0.972 | < 5.30 |
| COLO-800 (melanoma, adherent) | 0.985 | < 6.30 | 0.988 | < 8.10 | 0.97 | < 4.70 | 0.983 | < 5.30 |
| JHH-7 (liver, adherent) | 0.988 | < 6.30 | 0.984 | < 8.10 | 0.984 | < 4.70 | 0.989 | < 5.30 |
| NCI-H1417 (small cell lung carcinoma, suspension) | 0.978 | < 6.30 | 0.977 | < 8.10 | 0.971 | < 4.70 | 0.963 | < 5.30 |

| Cell Line | AUC [1] | pIC50 [1] | AUC [2] | pIC50 [2] | AUC [3] | pIC50 [3] | AUC [4] | pIC50 [4] |
| --- | --- | --- | --- | --- | --- | --- | --- | --- |
| DB (B-cell lymphoma, suspension) | 0.981 | < 6.30 | 0.981 | < 8.10 | 0.978 | < 4.70 | 0.946 | < 5.30 |
| NCI-H2342 (lung adenocarcinoma, adherent) | 0.984 | < 6.30 | 0.923 | < 8.10 | 0.948 | < 4.70 | 0.961 | < 5.30 |
| H2373 (mesothelioma, adherent) | 0.981 | < 6.30 | 0.967 | < 8.10 | 0.96 | < 4.70 | 0.983 | < 5.30 |
| KMRC-20 (kidney, adherent) | 0.988 | < 6.30 | 0.98 | < 8.10 | 0.986 | < 4.70 | 0.985 | < 5.30 |
| MHH-ES-1 (Ewing sarcoma, adherent) | 0.984 | < 6.30 | 0.979 | < 8.10 | 0.986 | < 4.70 | 0.974 | < 5.30 |
| TK (B-cell lymphoma, suspension) | 0.985 | < 6.30 | 0.983 | < 8.10 | 0.987 | < 4.70 | 0.989 | < 5.30 |
| P12-ICHIKAWA (T-cell lymphoblastic leukaemia, suspension) | 0.994 | < 6.30 | 0.992 | < 8.10 | 0.99 | < 4.70 | 0.989 | < 5.30 |
| H290 (mesothelioma, adherent) | 0.988 | < 6.30 | 0.989 | < 8.10 | 0.872 | 4.79 | 0.989 | < 5.30 |
| HCC1500 (breast, adherent) | 0.984 | < 6.30 | 0.987 | < 8.10 | 0.987 | < 4.70 | 0.985 | < 5.30 |
| MDA-MB-361 (breast, adherent) | 0.987 | < 6.30 | 0.977 | < 8.10 | 0.989 | < 4.70 | 0.959 | < 5.30 |
| OSC-20 (head and neck, adherent) | 0.957 | < 6.30 | 0.982 | < 8.10 | 0.974 | < 4.70 | 0.963 | < 5.30 |
| PA-TU-8902 (pancreas, adherent) | 0.981 | < 6.30 | 0.964 | < 8.10 | 0.98 | < 4.70 | 0.983 | < 5.30 |
| SW948 (large intestine, adherent) | 0.98 | < 6.30 | 0.951 | < 8.10 | 0.972 | < 4.70 | 0.973 | < 5.30 |
| NCI-H1437 (lung adenocarcinoma, adherent) | 0.983 | < 6.30 | 0.906 | < 8.10 | 0.986 | < 4.70 | 0.976 | < 5.30 |
| BICR10 (head and neck, adherent) | 0.983 | < 6.30 | 0.961 | < 8.10 | 0.984 | < 4.70 | 0.979 | < 5.30 |
| JHH-6 (liver, adherent) | 0.984 | < 6.30 | 0.987 | < 8.10 | 0.963 | < 4.70 | 0.983 | < 5.30 |
| NCI-H1693 (lung adenocarcinoma, adherent) | 0.973 | < 6.30 | 0.924 | < 8.10 | 0.971 | < 4.70 | 0.925 | < 5.30 |
| HCC1954 (breast, adherent) | 0.983 | < 6.30 | 0.921 | < 8.10 | 0.976 | < 4.70 | 0.978 | < 5.30 |
| SW13 (adrenal gland, adherent) | 0.986 | < 6.30 | 0.973 | < 8.10 | 0.987 | < 4.70 | 0.985 | < 5.30 |
| SW780 (bladder, adherent) | 0.982 | < 6.30 | 0.986 | < 8.10 | 0.985 | < 4.70 | 0.986 | < 5.30 |

pIC50: −log10 of the molar value. A lower IC50 marks a more sensitive line; a limit (>, <) means that the fit lies beyond the doses tested. For AUC the same curve is integrated over the 256-fold range of doses and scaled to a fraction; it is 1 without any effect and falls as sensitivity rises. Any top dose called inferred is not printed in the source and was worked back from the curve model.
